Laboratory results as given in the supplement of paper PMC12067230.
The data scatter; read single values as rough.

assay: amyloid nucleation score relative to library mode (yeast Sup35 reporter selection) (log enrichment difference); higher = more amyloid nucleation; sequences are the first 22 residues of the Bri2 peptide extended by up to 12 random residues; settings: random library (experiment): 1;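 active = nucleation score significantly above 0 at FDR 0.05; inactive = not significantly above 0 or absent from output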
Description: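 Random C-terminal extensions of the 22-aa Bri2 peptide by 12 NNK codons; premature stops give shorter extensions. Peptides were fused to the Sup35 nucleation domain in S. cerevisiae [psi-pin-] and selected on -ADE-URA plates for 7 d at 30 °C. The nucleation score is log(output/input), centred to the mode of each of 3 independent libraries (1 input, 3 technical output replicates), with duplicates merged. Sequences absent from the output ('random_non_nuc') were imputed with the library mode value, so they are given as censored (<). Nucleators are scores significantly >0 at FDR 0.05.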
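Also: [psi-pin-] Saccharomyces cerevisiae expressing SupN fusions, induced by 100 µM Cu2SO4, selected 7 d at 30 °C without adenine and uracil, scored by deep sequencing of output versus input.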

| Sequence | amyloid nucleation score |
| --- | --- |
| EASNCFAIRHFENKFAVETLICDQVHEHPGTTDA | inactive |
| EASNCFAIRHFENKFAVETLICDEHVGAGFEK | inactive |
| EASNCFAIRHFENKFAVETLICLRKRTTLGLGRG | inactive |
| EASNCFAIRHFENKFAVETLICALFDKSQCGSFR | 3.77 |
| EASNCFAIRHFENKFAVETLICTT | 2.95 |
| EASNCFAIRHFENKFAVETLICTYKSMQCSIVEW | inactive |
| EASNCFAIRHFENKFAVETLICLERASMPMGVHP | -0.295 |
| EASNCFAIRHFENKFAVETLICAMHLLCRTMVGR | inactive |
| EASNCFAIRHFENKFAVETLICGF | -0.412 |
| EASNCFAIRHFENKFAVETLICDNVCNLGRFWAW | 7.93 |
| EASNCFAIRHFENKFAVETLICVMALLTWRRCQT | inactive |
| EASNCFAIRHFENKFAVETLICVHVTRSEREYGG | 2.53 |
| EASNCFAIRHFENKFAVETLICVMFSTRLRNLAM | inactive |
| EASNCFAIRHFENKFAVETLICKTGSLFVSLRTW | inactive |
| EASNCFAIRHFENKFAVETLICARKVHTFLTGGK | inactive |
| EASNCFAIRHFENKFAVETLICVVCVYFIRFAMR | 3.14 |
| EASNCFAIRHFENKFAVETLICGVLI | 4.33 |
| EASNCFAIRHFENKFAVETLICMLWSLVRTCGLL | inactive |
| EASNCFAIRHFENKFAVETLICCSGTEEAAGVGC | 5.43 |
| EASNCFAIRHFENKFAVETLICYRRTENCLWLSG | -0.171 |
| EASNCFAIRHFENKFAVETLICATAIWFIDISCR | inactive |
| EASNCFAIRHFENKFAVETLICYHGYKYFYKHLW | inactive |
| EASNCFAIRHFENKFAVETLICPCSLGLFCETLY | 4.8 |
| EASNCFAIRHFENKFAVETLICLSEYITR | inactive |
| EASNCFAIRHFENKFAVETLICYPRIFLAMVWGQ | inactive |
| EASNCFAIRHFENKFAVETLICPQTE | inactive |
| EASNCFAIRHFENKFAVETLICATAYARPLLSWR | inactive |

same assay, conditions: random library (experiment): 2

| Sequence | amyloid nucleation score |
| --- | --- |
| EASNCFAIRHFENKFAVETLICTNYRIRIPVLWG | inactive |
| EASNCFAIRHFENKFAVETLICLSYILSCSGTRA | 3.59 |
| EASNCFAIRHFENKFAVETLICNAI | inactive |
| EASNCFAIRHFENKFAVETLICVVGKSSIRCQLS | inactive |
| EASNCFAIRHFENKFAVETLICGSNVNSRITEVV | inactive |
| EASNCFAIRHFENKFAVETLICAKVWTTDFVKVV | inactive |
| EASNCFAIRHFENKFAVETLICRTRRCPLGRHTG | inactive |
| EASNCFAIRHFENKFAVETLICFMF | 8.4 |

same assay, conditions: random library (experiment): 3

| Sequence | amyloid nucleation score |
| --- | --- |
| EASNCFAIRHFENKFAVETLICVGRLRTRRGRPE | 1.32 |
| EASNCFAIRHFENKFAVETLICVVAWHSEVGLWG | 3.43 |
| EASNCFAIRHFENKFAVETLICFMMSRDWWKVSL | inactive |
| EASNCFAIRHFENKFAVETLICQVCFVYTLCPLP | 1.33 |
| EASNCFAIRHFENKFAVETLICAAFAYCAGHTFA | inactive |
| EASNCFAIRHFENKFAVETLICLHPPSIFMSTSS | 4.39 |
| EASNCFAIRHFENKFAVETLICYSEALLGPDHGR | inactive |
| EASNCFAIRHFENKFAVETLICLERARAVGLGKW | 2.81 |
| EASNCFAIRHFENKFAVETLICNDL | inactive |
| EASNCFAIRHFENKFAVETLICECYTNVEKVIDL | inactive |
| EASNCFAIRHFENKFAVETLICCSVMNFNVYELR | 8.56 |
| EASNCFAIRHFENKFAVETLICCSPVWVLGARRF | 9.41 |
| EASNCFAIRHFENKFAVETLICFSEW | 5.27 |
